Where two headings read alike, the source gives them in different places. Results are given in words; binding and its absence hold for the method and conditions named. For part of these data: In cells and extracts the contact can be indirect. Some binding calls cover weakened binding; strength is not graded here.

The chains behind the UniProt entries cited, without tags or fusion partners. Where a name states a change or a piece, a line headed by the entry shows the natural chain unless it says otherwise.
UniProt Q04207: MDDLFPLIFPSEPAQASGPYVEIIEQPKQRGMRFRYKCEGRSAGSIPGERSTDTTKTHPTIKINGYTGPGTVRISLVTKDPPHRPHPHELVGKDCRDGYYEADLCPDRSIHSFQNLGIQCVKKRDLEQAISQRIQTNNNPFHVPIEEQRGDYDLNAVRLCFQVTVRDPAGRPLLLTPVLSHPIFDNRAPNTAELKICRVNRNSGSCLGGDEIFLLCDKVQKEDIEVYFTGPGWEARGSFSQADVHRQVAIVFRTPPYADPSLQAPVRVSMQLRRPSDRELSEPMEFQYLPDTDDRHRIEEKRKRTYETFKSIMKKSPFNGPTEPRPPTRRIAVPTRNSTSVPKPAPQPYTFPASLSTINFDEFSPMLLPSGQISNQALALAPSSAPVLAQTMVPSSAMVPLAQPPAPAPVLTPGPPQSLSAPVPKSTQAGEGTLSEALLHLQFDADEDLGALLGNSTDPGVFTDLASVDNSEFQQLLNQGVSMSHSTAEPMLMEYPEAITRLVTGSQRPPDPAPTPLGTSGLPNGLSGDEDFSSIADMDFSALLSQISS
UniProt Q04206: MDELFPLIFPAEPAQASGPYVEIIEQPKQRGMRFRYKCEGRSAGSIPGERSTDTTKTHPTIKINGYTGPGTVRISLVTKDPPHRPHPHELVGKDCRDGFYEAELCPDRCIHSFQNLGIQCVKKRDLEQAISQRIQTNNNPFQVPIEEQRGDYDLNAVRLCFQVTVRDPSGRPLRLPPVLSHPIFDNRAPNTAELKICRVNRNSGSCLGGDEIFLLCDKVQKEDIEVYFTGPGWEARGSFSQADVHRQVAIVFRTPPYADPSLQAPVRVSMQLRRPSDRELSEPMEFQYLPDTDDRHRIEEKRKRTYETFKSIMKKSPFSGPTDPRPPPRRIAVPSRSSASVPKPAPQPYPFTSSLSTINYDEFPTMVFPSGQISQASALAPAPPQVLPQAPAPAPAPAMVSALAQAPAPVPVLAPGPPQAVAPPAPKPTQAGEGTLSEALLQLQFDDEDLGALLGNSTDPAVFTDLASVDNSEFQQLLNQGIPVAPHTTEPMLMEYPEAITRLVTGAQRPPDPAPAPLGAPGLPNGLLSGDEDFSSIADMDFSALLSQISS
UniProt Q9Z1E3: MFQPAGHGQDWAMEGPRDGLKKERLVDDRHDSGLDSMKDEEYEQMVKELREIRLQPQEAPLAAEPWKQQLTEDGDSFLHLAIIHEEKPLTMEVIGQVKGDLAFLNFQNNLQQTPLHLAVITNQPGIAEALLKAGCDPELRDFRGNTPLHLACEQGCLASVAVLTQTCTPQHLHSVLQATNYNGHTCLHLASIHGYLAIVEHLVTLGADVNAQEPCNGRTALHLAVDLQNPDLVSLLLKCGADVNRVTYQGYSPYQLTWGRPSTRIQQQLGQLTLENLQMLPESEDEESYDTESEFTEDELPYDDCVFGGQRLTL

The target in one assay is GST-DJ-1 (UniProt Q99497). The assay can be described thus: pull-down; GST, GST-DJ-1 or GST-DJ-1(L166P) (20 μg) on glutathione-Sepharose 4B incubated with His-p65 (50 μg) in an ice bath for 4 h; washed with cold PBS five times; immunoblot; both purified. (In general: In western blotting, separated proteins are transferred to a membrane and probed.)
For a further assay, the target named is GST-DJ-1(L166P) (UniProt Q99497). The description is as above.
Assay [1] has as its target p65 (endogenous) (mouse (endogenous in BV2)) (UniProt Q04207). The assay can be described thus: co-IP; supernatants of BV2 cell lysates (untransfected, or transfected with si-Ctrl or si-DJ-1 for 72 h); immunoprecipitated with polyclonal anti-p65 antibodies or normal rabbit IgG; immunoblot.
A further assay concerns the target EGFP-p65 (UniProt Q04206). Description: co-IP; lysate supernatants of HEK293 cells transiently co-transfected with FLAG-DJ-1 or FLAG-DJ-1(L166P) and EGFP or EGFP-p65; immunoprecipitated with polyclonal anti-GFP antibody; immunoblot.
The target of assay [2] is p65 (endogenous) (mouse (endogenous in BV2)) (UniProt Q04207). The assay can be described thus: co-IP; supernatants of BV2 cell lysates (untransfected, or transfected with si-Ctrl or si-DJ-1 for 72 h); immunoprecipitated with polyclonal anti-p65 antibodies or normal rabbit IgG; immunoblot. This is another data set of the same source.

His-p65 (from UniProt Q04206 1-551): the binding entry with GST-DJ-1 is given as “binds”; with GST-DJ-1(L166P), “no binding (tested: His-p65 50 μg, GST-DJ-1(L166P) 20 μg)”. As for “NF-κB inhibitor α (IκBα) (from UniProt Q9Z1E3 1-314)”, the binding entry in assay [1] is listed as “binds”. As to FLAG-DJ-1 (from UniProt Q99497 1-189), in the assay with EGFP-p65, the binding entry is reported as “binds”. Still for that read-out and setting: under “FLAG-DJ-1(L166P) (from UniProt Q99497 1-189)” stands “no binding”.

B1: endogenous DJ-1 (protein, UniProt Q99LX0 1-189)
chain: MASKRALVILAKGAEEMETVIPVDVMRRAGIKVTVAGLAGKDPVQCSRDVMICPDTSLEDAKTQGPYDVVVLPGGNLGAQNLSESPMVKEILKEQESRKGLIAAICAGPTALLAHEVGFGCKVTTHPLAKDKMMNGSHYSYSESRVEKDGLILTSRGPGTSFEFALAIVEALVGKDMANQVKAPLVLKD
For B1, the binding entry in assay [2] is “binds”.

The record behind these values is paper PMC8286256.
